Out of some 110,000 compounds screened, about 230 (0.21%) showed an effect of 50% or more. The list shows a part of the results.
What follows are compounds tested against DPAP1 (Plasmodium falciparum, UniProt Q8IIJ9) (assay: primary screen, percent inhibition; read by cleavage of a fluorogenic dipeptide substrate; higher = more effect of the substance).
Parameters: species or system P. falciparum D10 trophozoite lysates; single well
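Note: 30 min substrate incubation versus DMSO and 10 µM JCP410 controls.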

Chain of DPAP1 (Q8IIJ9 whole entry, looked up): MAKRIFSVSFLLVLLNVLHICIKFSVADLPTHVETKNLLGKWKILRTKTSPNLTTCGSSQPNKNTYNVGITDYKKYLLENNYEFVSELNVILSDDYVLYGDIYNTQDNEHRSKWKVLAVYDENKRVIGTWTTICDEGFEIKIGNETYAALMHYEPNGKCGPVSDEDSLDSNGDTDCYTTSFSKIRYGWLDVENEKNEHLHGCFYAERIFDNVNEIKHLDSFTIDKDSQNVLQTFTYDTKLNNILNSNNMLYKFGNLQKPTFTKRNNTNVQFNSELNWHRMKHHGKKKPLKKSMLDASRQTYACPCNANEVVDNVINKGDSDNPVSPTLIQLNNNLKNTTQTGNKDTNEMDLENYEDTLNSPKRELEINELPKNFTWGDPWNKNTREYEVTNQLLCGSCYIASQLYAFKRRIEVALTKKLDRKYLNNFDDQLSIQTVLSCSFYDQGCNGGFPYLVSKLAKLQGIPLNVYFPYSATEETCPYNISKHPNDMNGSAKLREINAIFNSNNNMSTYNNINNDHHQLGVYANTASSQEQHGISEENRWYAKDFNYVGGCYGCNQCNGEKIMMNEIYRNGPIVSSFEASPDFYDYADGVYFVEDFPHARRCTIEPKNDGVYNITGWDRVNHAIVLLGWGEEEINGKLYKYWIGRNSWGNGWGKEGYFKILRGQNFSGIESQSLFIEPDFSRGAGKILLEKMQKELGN

Row | Structure (SMILES) | % Inhibition @ 10 uM [%]
1 | Clc1nc(NCc2ccco2)nc(N2CCCCC2)n1 | -3
2 | CC1CCN(c2c(NCc3ccc(C(=O)NCC4CCC(C(=O)O)CC4)cc3)c(=O)c2=O)CC1 (stereo not drawn) | -0.522
3 | NC(=O)C1CCCN(C2CCN(Cc3ccccc3)CC2)C1 (stereo not drawn) | -5.11
4 | O=C(NC1CCC(NC(=O)c2ccccc2Cl)CC1)c1ccccc1Cl (stereo not drawn) | -1.44
5 | CCOC(=O)C1=CN(C)C=C(C(=O)OCC)C1c1ccsc1 | -3.23
6 | COc1ccc(CN2CCCC(O)C2)cc1Br (stereo not drawn) | -6.21
7 | CCOC1=CC(=O)N(c2ccc(C)cc2)C1 | 4.88
8 | Cc1ccc2[nH]c3c(c2c1)CCC/C3=N\O | -1.45
9 | CC(C)c1cc(C(=O)NCc2ccc(Cl)cc2)no1 | -4.43
10 | Cc1cc(=O)n2nc(N3CCCC(C(=O)NCC(C)c4ccccc4)C3)sc2n1 (stereo not drawn) | -5.63
11 | COc1ccc(NC(=O)c2ccc(C(C)(C)C)cc2)c(C)c1 | -10
12 | O=S(=O)(Nc1ccccc1NS(=O)(=O)c1ccc(Cl)cc1)c1ccc(Cl)cc1 | -10.2
13 | Cc1nn(CCC(=O)N2CCC3(CC2)OCCO3)c(=O)c2nn(-c3ccccc3)c(C)c12 | -10
14 | Fc1ccc(CN2CCN(c3ccccc3F)CC2)cc1 | 3.16
15 | CN1CCN(CC(O)COc2ccc(F)cc2)CC1 (stereo not drawn) | 0.275
16 | O=C1C2C3C=CC(CC3)C2C(=O)N1c1cc(Cl)ccc1Cl (stereo not drawn) | 1.62
17 | CNS(=O)(=O)c1cccs1 | 1.37
18 | O=C(/C=C/c1ccccc1)N1CCN(C2=NS(=O)(=O)c3ccccc32)CC1 | -7.02
19 | CC(=O)c1ccc(NC(=O)CCCC(=O)O)cc1 | -0.999
20 | COc1ccc(C)cc1NC(=O)CNS(=O)(=O)c1cc(Cl)ccc1Cl | 1.43
21 | Fc1cccc(F)c1CN1CCc2c([nH]c3ccccc23)C1 | 0.472
22 | COc1ccc(CCn2c(C)c3c(C)nn4cc(C)cc4c3c2C)cc1OC | 2.01

Row | Structure (SMILES) | % Inhibition @ 10 uM [%]
23 | CCOC(=O)c1c(NC(=O)COCc2cc(-c3ccc4c(c3)OCO4)on2)sc2c1CCCC2 | 0.822
24 | COc1nc(-c2ccccc2)c2cc(C)ccc2n1 | 3.65
25 | CC(=O)c1cccc(NC(=O)CNS(=O)(=O)c2c(C)cc(C)cc2C)c1 | -2.22
26 | CCOc1ccc(N(CC(=O)N2CCOCC2)S(=O)(=O)c2ccc(SC)cc2)cc1 | 4.67
27 | COC(=O)c1ccc(/C=C/C(=O)c2cc3cc(Cl)ccc3oc2=O)cc1 | 4.33
28 | CCC(C)NC(=O)CSc1nc2nnc(C)c-2c(N)n1-c1ccccc1C (stereo not drawn) | 1.2
29 | CC1c2c([nH]c3ccccc23)CCC1C(=O)O (stereo not drawn) | 7.78
30 | COc1ccc2cc(-c3csc(NC(=O)CCC(=O)N4CCCC(C)C4)n3)c(=O)oc2c1 (stereo not drawn) | 7.56
31 | CCS(=O)(=O)c1nc(S(=O)(=O)c2ccc(Cl)cc2)c(N2CCc3ccccc3C2)s1 | -4.04
32 | Cc1cc(C)cc(OCC(=O)Nc2cc(F)ccc2F)c1 | -0.63
33 | CSc1nn(Cc2ccc(C)cc2)c(N)c1S(=O)(=O)c1ccc(C)cc1 | -2.29
34 | O=C1CSC2=NC3=C(CCc4ccccc43)C(c3ccc(F)cc3)N12 (stereo not drawn) | 10.1
35 | CCOc1ccc2nc(Nc3ncc4c(n3)CC(C)(C)CC4=O)nc(C)c2c1 | -1.17
36 | COc1ccccc1/C=C/C=N/n1cnnc1 | 3.06
37 | O=C(Nc1ccc2c(c1)OCO2)c1ccccc1 | 5.08
38 | CCCCSc1c(O)c2ccccc2n(C)c1=O | 4.05
39 | Cc1csc(NC(=O)c2cnn(-c3ccc(F)cc3F)c2C2CCNCC2)n1 | 0.358
40 | c1cc2c(cc1CN1CCN(Cc3csc4c3CCCC4)CC1)OCO2 | 20
41 | CCn1c(SCC(=O)NCc2ccco2)nc2c(c1=O)SCC2 | 1.39
42 | COc1ccccc1C(=O)Nc1ccccc1C | -2.21
43 | CCOC(=O)c1sc(NC(=O)c2cc(-c3ccc4c(c3)OCO4)on2)c(C(=O)OCC)c1C | -6.45
44 | COc1cc(C2c3c(-c4ccccc4O)n[nH]c3C(=O)N2CCCOC(C)C)ccc1OCC(C)C (stereo not drawn) | 0.366

Row | Structure (SMILES) | % Inhibition @ 10 uM [%]
45 | Cc1c(C(=O)O)cnc2cc(-c3ccccc3)nn12 | 2.39
46 | O=C(N1CCN(CCO)CC1)N1c2ccccc2CCc2ccccc21 | 3.18
47 | Brc1ccc(-c2nc(-c3ccccc3)cc(N3CCCCC3)n2)cc1 | 4.22
48 | N#Cc1c(SCc2ccccc2)nc2ccc(F)cc2c1O | -4.41
49 | COc1ccccc1Cn1c(COC(=O)c2cccs2)nc2ccccc21 | 3.54
50 | CCOc1cc(/C=C2\SC(=N)N(c3nonc3N)C2=O)ccc1OCCN1CCOCC1 | 3.81
51 | Cc1c(C(=O)Nc2cc(F)cc(F)c2)cnn1-c1ccccc1 | -9.31
52 | Cc1ccc2c(C)nc(NC3=NCN(C4CCCC(C)C4C)CN3)nc2c1 (stereo not drawn) | 3.73
53 | CCOC(=O)c1cc2c(n(-c3ccccc3)c1=O)CCCC2=O | 2.57
54 | CC1(C)C=C(c2ccc(O)cc2)CC(C)(C)N1 | -0.0953
55 | N#CC1=C(N)Oc2[nH]nc(-c3ccccc3)c2C1c1ccc(Cl)cc1 (stereo not drawn) | 4.39
56 | C=CCN1C(=O)/C(=C\c2ccc(O)c(OC)c2)C(C(=O)OC)=C1C | 9.42
57 | O=C(O)c1cccc(Nc2cccc(Cl)c2)c1 | 0.989
58 | COc1ccc(-c2csc3ncn(Cc4ccc(C(=O)O)cc4)c(=O)c23)cc1 | 12.4
59 | Nc1nonc1C(=O)NCCNCc1ccc(-c2ccccc2F)o1 | 3.27
60 | CC(=O)n1cc(C2C(=O)NC(=O)NC2=O)c2ccccc21 | -2.42
61 | Cc1ccc(S(=O)(=O)c2ccc3c(c2)Sc2ccccc2N3)cc1 | 0.266
62 | COCCNC(=O)CCc1nc2cccnc2n1-c1ccccc1 | -8.68
63 | O=C(NCc1ccco1)Nc1cnc2ccccc2c1O | -2.84
64 | CCc1ccc(S(=O)(=O)N=C2C=CC(=O)C=C2)cc1 | 7.76
65 | CC1=C(c2ccc(C)cc2)S(=O)(=O)N(CC(=O)N2CCN(c3ccccn3)CC2)C1=O | -3.34
66 | CC(=O)Nc1ccc(C(=O)Nc2ccccc2Cl)cc1 | 7.65

— PMC6919601, “Identification of Plasmodium dipeptidyl aminopeptidase allosteric inhibitors by high throughput screening” (PLoS ONE, 2019)
